In all, about 110,000 compounds were measured (“z-score”: median about -0.1, highest 2% from about 2 on). The list shows a part of the results. Activity calls are given as the source filed them.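 How the source made its calls: active means z-score in the third read window above 3 or below -3; inactive means the rest.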

The target in the test is Metabotropic glutamate receptor 8 (Rattus norvegicus) (UniProt P70579). The experiment in a line: rat mGluR8 modulators via GIRK flux, primary screen, cell-based, thallium flux, HTS (AID 488969). To be noted: HEK293 rat mGluR8, GIRK (G protein-gated inwardly rectifying potassium channel) thallium flux, FluoZin2; at 10 µM; stronger effect = higher value; submaximal glutamate (EC20) added with thallium.
Chain of UniProt P70579 (P70579 whole entry, looked up): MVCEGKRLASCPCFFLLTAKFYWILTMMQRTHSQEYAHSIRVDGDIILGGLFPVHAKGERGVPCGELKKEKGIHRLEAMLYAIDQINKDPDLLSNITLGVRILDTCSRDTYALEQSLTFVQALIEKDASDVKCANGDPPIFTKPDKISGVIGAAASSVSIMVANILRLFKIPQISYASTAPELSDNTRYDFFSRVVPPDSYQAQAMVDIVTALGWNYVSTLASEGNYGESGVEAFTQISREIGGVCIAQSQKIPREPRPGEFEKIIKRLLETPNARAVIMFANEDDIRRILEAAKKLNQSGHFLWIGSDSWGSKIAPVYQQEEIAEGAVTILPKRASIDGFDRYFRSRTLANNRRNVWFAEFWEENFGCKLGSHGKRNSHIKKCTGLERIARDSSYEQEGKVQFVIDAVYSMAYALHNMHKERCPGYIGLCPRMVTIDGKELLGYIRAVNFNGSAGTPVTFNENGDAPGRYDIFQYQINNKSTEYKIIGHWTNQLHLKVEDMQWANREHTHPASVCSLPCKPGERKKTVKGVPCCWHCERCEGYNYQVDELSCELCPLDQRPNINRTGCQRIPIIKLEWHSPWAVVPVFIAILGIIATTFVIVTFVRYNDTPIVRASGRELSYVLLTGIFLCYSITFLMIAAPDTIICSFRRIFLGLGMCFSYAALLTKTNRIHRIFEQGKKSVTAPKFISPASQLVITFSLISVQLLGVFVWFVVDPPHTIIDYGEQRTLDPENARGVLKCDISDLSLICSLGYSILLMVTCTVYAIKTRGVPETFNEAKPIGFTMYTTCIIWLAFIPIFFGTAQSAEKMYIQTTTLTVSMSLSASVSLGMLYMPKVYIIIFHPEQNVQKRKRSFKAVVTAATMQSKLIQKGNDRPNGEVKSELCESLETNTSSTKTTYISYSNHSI
Turning to `Cc1cc(C(=O)CN2C(=O)NC3(CCCc4ccccc43)C2=O)c(C)n1Cc1ccco1` (stereo not drawn), the z-score came out at 0.0556. Under `CCOc1ccc(/C(O)=C2/C(=O)C(=O)N(CCOCCO)C2c2cccnc2)cc1` (stereo not drawn) stands 0.108; under `COc1ccc(OC)c(Nc2nc(-c3cccs3)cs2)c1`, 0.0362. Under `CC(C)N(Cc1cc2ccccc2[nH]c1=O)C(=O)c1cccnc1` stands 0.484; under `CCN(CC)S(=O)(=O)c1ccc(C)c(NC(=O)COc2ccc(Cl)cc2Br)c1`, -0.162. Consider `CCOc1nc(NC2CCCCC2)nc(NC(C)(C)C)n1`, for which the z-score was -0.931. Consider `Cc1nnc(NC(=O)c2ccco2)s1`, for which the z-score is active: 3.93. The same measure for `CCc1c(C)c(C#N)c2nc3ccccc3n2c1N1CCN(c2cc(C)ccn2)CC1`: -0.193.

In the case of `COc1ccc(C(=O)CSc2ccc(-c3ccc(C)cc3)nn2)cc1`, the z-score is 0.0135. Take `O=c1[nH]c(=O)n(-c2ccc(F)cc2)c2c1C(C(F)(F)F)(C(F)(F)F)N=C(c1ccc(F)cc1)N2`: the z-score is -0.611.

In the case of `CCCOc1ccc(CNC(=S)NCc2ccc(OC(C)C)cc2)cc1`, the z-score was -0.0698. As for `O=C(NC(=S)Nc1ccccc1N1CCOCC1)c1sc2ccccc2c1Cl`, the z-score amounted to 1.18. With `Cn1nc(C(F)(F)F)c(/C=N/OC(=O)c2ccccc2)c1Cl`, the z-score was 0.158. The same measure for `c1ccc2sc(C3CCN(Cc4nnnn4Cc4ccc5c(c4)OCO5)CC3)nc2c1`: 0.227; for `O=c1[nH]nnc2sc3c(c12)CCCC3`: 0.0199; for `O=S(=O)(c1ccccc1)c1nc(-c2ccco2)oc1NCc1ccccc1`: -0.301.

The compound `COc1ccc(NC(=O)Nc2ccc(C(=O)N3CCOCC3)cc2)cc1` yielded a z-score of 0.271.

`CSc1nnc(-c2ccc(S(=O)(=O)N3CCOCC3)cc2)n1CC1CCCO1` (stereo not drawn) showed a z-score of -1.21. In the case of `CCOc1ccc(NC(=O)CSc2nc3ccccc3c(=O)n2CCCC(=O)N2CCCC2)cc1`, the z-score is -0.154. The same measure for `Cc1ccc(C)c(N2CCN(c3ncnc4c3cnn4-c3ccccc3)CC2)c1`: -0.0672.

`c1ccc(CCn2nnnc2CN2CCN(C3CCCC3)CC2)cc1` had a z-score of -0.263.

Compound `COc1ccc(NC(=O)CCCSc2nc(-c3ccco3)cc(C(F)(F)F)n2)cc1OC` showed a z-score of 1.53. In turn, `CC1CCN(C(=O)CN(c2ccc(Oc3ccccc3)cc2)S(C)(=O)=O)CC1` gave a z-score of -0.522. With `Cc1ccc(S(=O)(=O)N2CC(=O)Nc3ccccc32)cc1`, the z-score is -0.191. On to `COc1ccc(-c2c(C(=O)O)nc3ccccc3c2C(=O)O)cc1`, for which the z-score is -0.167.

`Cn1c(=O)c2c(nc(SCCNS(=O)(=O)c3ccccc3)n2C)n(C)c1=O` came in with a z-score of 0.393. `COC(=O)c1[nH]c2cccc(OC)c2c1NC(=O)CCN1CCN(c2ccccc2F)CC1`: the z-score is 0.0528. `O=C(Nc1ccc(OC(=O)c2ccco2)cc1)c1ccco1` gave a z-score of -1.04. The same measure for `CCOC(=O)c1ccc(NC(=O)CSc2nnc(CNC(=O)c3ccccc3F)o2)cc1`: -0.186. The same measure for `COc1cccc(-c2nc(CS(=O)CC(=O)NCc3ccccc3)c(C)o2)c1` (stereo not drawn): -0.366; for `CCCCN(C(=S)Nc1ccccc1)C1CCS(=O)(=O)C1` (stereo not drawn): -0.37. Under `c1ccc(C(c2ccccc2)c2nc(-c3cccnc3)no2)cc1` stands -0.277; under `CCCCn1c(SCC(=O)N2CCC(C(=O)OCC)CC2)nc2cc(S(N)(=O)=O)ccc21`, -1.11; under `O=C(Nc1ccc(S(=O)(=O)NCCc2ccccc2)cc1)c1ccc(Br)o1`, -0.241. For `Cc1ccccc1NC(=O)CNC(=O)c1ccc(C(F)(F)F)cc1`, the z-score is -0.0901.

On to `O=C(O)CCC(=O)NC1CCCCCCC1`, for which the z-score is active: 3.34. The same measure for `O=C(Nc1nc(=O)c2ccccc2s1)c1ccc(F)cc1`: active: 16.3; for `COc1ccccc1NC(=O)CC1COc2ccccc2O1` (stereo not drawn): 0.0423; for `CCCS(=O)(=O)N1CCn2c(nc3ccccc32)C1`: -0.424. In turn, `COc1ccc(CCNC(=O)C2CCN(S(=O)(=O)N3CCCCC3)CC2)cc1OC` showed a z-score of 0.168. Under `Cc1ccc(S(=O)(=O)NC2(C(=O)O)CCCCC2)cc1` stands 0.393. The same measure for `C=CCN1C(=O)C(O)(CC(=O)c2ccc(Cl)cc2)c2ccccc21` (stereo not drawn): 0.285; for `COc1ccc(CN2CC(C(=O)N3CCOCC3)CC2=O)cc1` (stereo not drawn): -0.0405; for `COc1ccc(C2CC(=O)n3nc(C45CC6CC(CC(C6)C4)C5)nc3S2)cc1OC` (stereo not drawn): 0.344. For `CCCC1(c2ccccc2)NC(=O)N(CC(=O)Nc2sc(-c3ccccc3)cc2C(=O)OCC)C1=O` (stereo not drawn), the z-score was -0.0965. In the case of `Oc1ccccc1-c1nc(NCCN2CCOCC2)c2ccccc2n1`, the z-score is -1.2. Under `Cc1cc(C)c(/C=N/NC(N)=O)c(C)c1/C=N/NC(N)=O` stands 0.0401. `CC(=O)N1CCc2cc(S(=O)(=O)NCCN3CCC(C)CC3)ccc21`: the z-score worked out at 0.0551. Under `COC(=O)c1c(N)sc2c1CCN(c1ncc(C(F)(F)F)cc1Cl)C2` stands -0.112; under `O=C(CSc1ccc(-c2ccco2)nn1)c1ccccc1`, active: 7.29. The same measure for `Cc1ccc2[nH]c(=O)c(CN(CC3CCCO3)C(=O)c3ccncc3)cc2c1` (stereo not drawn): 0.35; for `CCn1cc(C(=O)NCc2ccco2)c(=O)c2cc(S(=O)(=O)N3CCc4ccccc4C3)ccc21`: -0.51. The same measure for `CC(C)Cn1c(=O)[nH]c2ccccc21`: 0.476; for `Brc1ccc2c(c1)OCCOCCOc1cc(Br)ccc1OCCOCCOCCO2`: -0.346.

`O=C(NCc1ccc(Cl)cc1)C1CCN(S(=O)(=O)c2cc([N+](=O)[O-])ccc2Cl)CC1` returned a z-score of 0.0626. Take `O=C(NNC(=O)c1cc2cc3ccccc3nc2s1)c1cccc(Cl)c1`: the z-score was determined as 0.21. Under `Cc1ccsc1/C=N/n1c(-c2cccnc2)n[nH]c1=S` stands -0.554. The compound `Cc1ccc(-c2nnn(CC(=O)N(Cc3cccs3)C(C(=O)NC3CCCCC3)c3ccco3)n2)o1` (stereo not drawn) came in with a z-score of 0.915. On to `CN1CCN(C(=O)CCn2nc(-c3ccccc3)c3ccccc3c2=O)CC1`, for which the z-score came to 0.654. Under `O=C1C2ON(c3ccc(Br)cc3)C(c3cccnc3)C2C(=O)N1C1CCCCC1` (stereo not drawn) stands -0.0496; under `CCOC(=O)c1cc2n(n1)C(C(F)(F)C(F)(F)F)CC(C)N2` (stereo not drawn), -0.125; under `CCc1ccc(OCC(=O)NCCN(C)C)c(Br)c1`, 0.426. `NC(=O)c1ccc(NC(=O)c2ccc3c(c2)OCO3)cc1` showed a z-score of -0.0572. The same measure for `CC(=O)Nc1nc(CC(C)C)cc2c1c(=O)oc1ccccc12`: -0.0373. Under `CCN(CC)CCCn1c(C)cc2c(c1=O)C(c1ccccc1)C(C#N)=C(N)O2` (stereo not drawn) stands 0.538; under `Cc1ccc2nc(-c3ccc(NS(=O)(=O)c4ccccc4)cc3)sc2c1`, -0.202; under `O=C(CN1CCCc2ccccc21)NCc1ccccc1Cl`, -0.0417. `COc1cc(/C=C2/CCC/C(=C\c3cc(O)c(OC)c(Cl)c3)C2=O)cc(Cl)c1O` registered a z-score of -0.0835.

The record behind these values is PubChem BioAssay AID488969 (Vanderbilt High Throughput Screening Facility, 2010).
